Data as given in article PMC4336329 (PLoS ONE, 2015).
Screen size: about 310,000 compounds; about 14,000 (4.5%) showed an effect of 50% or more. Effects have a minus sign here. The list shows a part of the results.

Each molecule was assayed against human ether-à-go-go-related gene (hERG) potassium channel (human, UniProt Q12809) (assay: primary screen, population patch clamp on CHO cells stably expressing hERG).
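Further: peak tail current of the secondary pulse compared with the same well before compound.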

human ether-à-go-go-related gene (hERG) potassium channel, sequence (Q12809 whole entry, looked up): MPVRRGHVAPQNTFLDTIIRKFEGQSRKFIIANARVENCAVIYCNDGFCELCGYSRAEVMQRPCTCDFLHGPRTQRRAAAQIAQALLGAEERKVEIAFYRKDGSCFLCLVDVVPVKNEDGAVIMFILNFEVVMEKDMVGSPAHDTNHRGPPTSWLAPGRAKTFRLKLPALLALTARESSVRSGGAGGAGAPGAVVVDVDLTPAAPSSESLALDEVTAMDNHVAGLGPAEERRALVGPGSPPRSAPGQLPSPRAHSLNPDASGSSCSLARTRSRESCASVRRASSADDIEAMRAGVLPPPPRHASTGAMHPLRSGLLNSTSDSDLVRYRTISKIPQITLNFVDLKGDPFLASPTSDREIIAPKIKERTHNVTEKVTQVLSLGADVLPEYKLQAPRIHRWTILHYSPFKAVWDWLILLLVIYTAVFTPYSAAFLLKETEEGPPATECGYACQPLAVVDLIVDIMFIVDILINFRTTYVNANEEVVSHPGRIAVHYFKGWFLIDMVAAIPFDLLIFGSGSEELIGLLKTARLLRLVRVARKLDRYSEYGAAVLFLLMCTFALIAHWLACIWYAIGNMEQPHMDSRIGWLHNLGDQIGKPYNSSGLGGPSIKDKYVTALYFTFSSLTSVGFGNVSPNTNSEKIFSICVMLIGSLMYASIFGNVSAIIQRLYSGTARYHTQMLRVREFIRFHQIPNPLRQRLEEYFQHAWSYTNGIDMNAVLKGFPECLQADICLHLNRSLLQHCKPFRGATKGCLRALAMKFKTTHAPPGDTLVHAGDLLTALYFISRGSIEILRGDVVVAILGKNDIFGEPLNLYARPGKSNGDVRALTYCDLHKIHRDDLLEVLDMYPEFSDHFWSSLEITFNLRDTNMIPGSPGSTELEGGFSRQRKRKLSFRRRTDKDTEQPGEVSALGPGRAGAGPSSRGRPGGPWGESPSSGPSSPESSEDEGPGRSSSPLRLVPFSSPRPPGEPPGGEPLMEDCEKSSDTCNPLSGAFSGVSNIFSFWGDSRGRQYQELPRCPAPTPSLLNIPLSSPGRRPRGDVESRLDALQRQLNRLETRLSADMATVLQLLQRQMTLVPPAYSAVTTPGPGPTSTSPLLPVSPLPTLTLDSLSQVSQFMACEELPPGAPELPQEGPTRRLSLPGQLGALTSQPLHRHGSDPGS

SMILES | hERG current change (%, negative = inhibition) at 10uM [%]
COc1ccc(/C=C2\SC(=S)N(CCC(=O)Nc3cccc(C(=O)O)c3)C2=O)cc1OC | 15.2
COC(=O)CCc1nc2ccccc2[nH]c1=O | -1.09
O=C(COC(=O)CCSc1ccc(Cl)cc1)NCc1ccco1 | 54.6
Nc1ccc(S(=O)(=O)N2CCCC2)cc1Cl | -6.2
CC(NC(=O)c1cccc(OC2CCN(C(=O)C3CC3)CC2)c1)c1ccc(F)cc1 (centres unmarked) | -35.8
Cc1ccnc(N2CCN(C(=O)CSc3nc4ccccc4nc3N3CCC(C)CC3)CC2)c1 | 17.9
O=C(Cn1cc(C(=O)C2CC2)c2ccccc21)NCc1ccccc1 | 3.43
COc1cc(/C=C/c2cc[n+](C)cc2)ccc1OCC(=O)Nc1ccc(Cl)c(Cl)c1.[I-] | -5.84
CCOC(=O)C1=NN(C(=O)Cc2ccccc2)C(O)(C(C)(C)C)C1 (centres unmarked) | 9.74
Cc1cc(Cl)c2oc(C(=O)N3CCC(O)(c4ccccc4)CC3)c(C)c2c1 | 8.87
COc1ccc2nc3c(cc2c1)c(NC(=O)c1cccs1)nn3CC(C)C | 4.15
O=C1c2ccccc2C(=O)N1CC1c2ccccc2CCN1C(=O)N1CCOCC1 (centres unmarked) | 5.98
CC(C)OC(=O)Cn1nc(C(c2ccccc2)c2ccccc2)oc1=O | -12
Cc1ccc(C(=O)CC2C(=O)N(c3ccccc3)C(=S)N2c2ccccc2)cc1 (centres unmarked) | -7.04
O=C1c2ccccc2C(=O)N1CCSc1nc2ccccc2c(=O)n1CCCN1CCOCC1 | -15.1
Cc1ccc(S(=O)(=O)/N=c2\sccn2C)cc1 | 16.1
CCOC(=O)/C(=C\Nc1ccc(OC(F)(F)F)cc1)Sc1ncc(C(F)(F)F)cc1Cl | 12.3
CCC(C)(C)NC(=O)C(c1ccc(F)cc1)N(Cc1ccc(OC)cc1)C(=O)c1cnccn1 (centres unmarked) | -11.8
COc1ncccc1-c1nnn(-c2ccc(F)cc2)n1 | -4.4
CCOC(=O)c1ccc(-c2ccc(C3Nc4ccccc4C(=O)N3O)o2)cc1 (centres unmarked) | 11.2
Cl.N#Cc1ccc(OCC(=O)N2CCN(Cc3ccc4c(c3)OCO4)CC2)cc1 | -68.1
CNc1nc(Cl)c(SC)c(N2CCOCC2)n1 | -6.75

SMILES | hERG current change (%, negative = inhibition) at 10uM [%]
COc1cc(NS(=O)(=O)c2ccc(NC(C)=O)cc2)ncn1 | 0.81
CC(C(=O)O)n1ncc2ccccc2c1=O (centres unmarked) | 6.13
CN(c1ccccc1)S(=O)(=O)c1ccc(C(=O)Nc2nnc(C3CC3)s2)cc1 | -11.2
Cc1nnc(SCC(=O)NC2CCCCC2)s1 | 10.7
Cc1ccc(OCCNC(=O)CNC(=O)c2ccc(C)c(C)c2)cc1 | -9.96
CCCNc1nc2c(c(=O)[nH]c(=O)n2C)n1Cc1cccc(Br)c1 | 7.23
O=C1C2CCCN2c2ccc(S(=O)(=O)N3CCOCC3)cc2N1Cc1ccccc1F (centres unmarked) | 6.99
CN(c1ccccn1)c1ncnc2[nH]ncc12 | -9.28
CC12CCC(O)CC1=CCC1C2CCC2(C)C1CCC21CCC(=O)O1 (centres unmarked) | 2.62
Cc1ccc(NC(=O)COC(=O)Cc2csc(-c3cccc(F)c3)n2)cc1C | 2.69
Cc1ccc(Cl)cc1NC(=O)c1ccc(Cn2cc(Cl)cn2)cc1 | 11
CCC(CC)C(=O)Nc1ccccc1-n1cccc1 | 6.37
CCOC(=O)c1sc2ncn(/N=C/N(C)C)c(=O)c2c1C | -2.08
COc1cc(C(=O)Nc2cccc(C(C)=O)c2)cc(OC)c1OC | 7.4
Cc1ccc(OC(=O)COc2ccccc2C)c(-n2nc3ccccc3n2)c1 | -8.27
CCOC(=O)C1CCN(S(=O)(=O)c2ccc(-n3cnnn3)c(C)c2)CC1 | -19.5
O=C(NC1=NCCS1)[C@H](Cc1ccccc1)N1C(=O)c2ccccc2C1=O | -4.73
CC(=O)c1cccc(NC(=O)C2CCCN(S(=O)(=O)c3cccc4cccnc34)C2)c1 (centres unmarked) | 2.6
Cc1ccc2nc(C)c(C(=O)N/N=C/c3ccco3)cc2c1 | -14.3
CCOc1ccc(C2CC(c3ccc(OC)cc3)n3ncnc3N2)cc1 (centres unmarked) | -11
COc1ccccc1N1CCN(C(=O)c2sc3nc(-c4ccc(F)cc4)cn3c2C)CC1 | -34
O=Cc1cccn1-c1ccc(O)cc1 | 11.3
